The supplement of paper PMC8728848
This is one part of the list.

Key:
Assay in all cases: glycan array binding signal (z-score within array); higher = stronger binding
Details in all cases: glycan notation: IUPAC condensed, linker removed
[1] = molecular target: Fuc(a1-3)[Gal3S(b1-4)]GlcNAc
Summary of the method: (§1)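 The binding signal is a Z-score computed within each array and averaged over linkers. Arrays of the same protein sequence at different concentrations or buffers were also averaged together. Data originate from 3228 arrays in the Consortium for Functional Glycomics database, kept only where the protein sequence was available.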

[2] = molecular target: Fuc(a1-3)[Gal3S(b1-4)]GlcNAc6S
Summary of the method: as §1

[3] = molecular target: Fuc(a1-3)[GalNAc(b1-4)]GlcNAc
Summary of the method: as §1

[4] = molecular target: Fuc(a1-3)[GalNAc(b1-4)]GlcNAc6S
Summary of the method: as §1

Fuc(a1-4)GlcNAc = molecular target: Fuc(a1-4)GlcNAc
Summary of the method: as §1

Fuc(b1-3)GlcNAc = molecular target: Fuc(b1-3)GlcNAc
Summary of the method: as §1

Gal(a1-2)Gal = molecular target: Gal(a1-2)Gal
Summary of the method: as §1

Gal(a1-3)Gal = molecular target: Gal(a1-3)Gal
Summary of the method: as §1

Gal(a1-3)Gal(b1-3)GlcNAc = molecular target: Gal(a1-3)Gal(b1-3)GlcNAc
Summary of the method: as §1

[5] = molecular target: Gal(a1-3)Gal(b1-3)GlcNAc(b1-2)Man
Summary of the method: as §1

[6] = molecular target: Gal(a1-3)Gal(b1-3)GlcNAc(b1-2)Man(a1-3)[Gal(a1-3)Gal(b1-3)GlcNAc(b1-2)Man(a1-6)]Man(b1-4)GlcNAc(b1-4)GlcNAc
Summary of the method: as §1

[7] = molecular target: Gal(a1-3)Gal(b1-3)GlcNAc(b1-3)GalNAc
Summary of the method: as §1

[8] = molecular target: Gal(a1-3)Gal(b1-3)GlcNAc(b1-6)GalNAc
Summary of the method: as §1

[9] = molecular target: Gal(a1-3)Gal(b1-3)[Fuc(a1-4)]GlcNAc(b1-2)Man(a1-3)[Gal(a1-3)Gal(b1-3)[Fuc(a1-4)]GlcNAc(b1-2)Man(a1-6)]Man(b1-4)GlcNAc(b1-4)GlcNAc
Summary of the method: as §1

Gal(a1-3)Gal(b1-4)Glc = molecular target: Gal(a1-3)Gal(b1-4)Glc
Summary of the method: as §1

Gal(a1-3)Gal(b1-4)GlcNAc = molecular target: Gal(a1-3)Gal(b1-4)GlcNAc
Summary of the method: as §1

[10] = molecular target: Gal(a1-3)Gal(b1-4)GlcNAc(b1-2)Man
Summary of the method: as §1

[11] = molecular target: Gal(a1-3)Gal(b1-4)GlcNAc(b1-2)Man(a1-3)[Gal(a1-3)Gal(b1-4)GlcNAc(b1-2)Man(a1-6)]Man(b1-4)GlcNAc(b1-4)GlcNAc
Summary of the method: as §1

[12] = molecular target: Gal(a1-3)Gal(b1-4)GlcNAc(b1-3)GalNAc
Summary of the method: as §1

[13] = molecular target: Gal(a1-3)Gal(b1-4)GlcNAc(b1-6)GalNAc
Summary of the method: as §1

[14] = molecular target: Gal(a1-3)Gal(b1-4)[Fuc(a1-3)]GlcNAc
Summary of the method: as §1

[15] = molecular target: Gal(a1-3)Gal(b1-4)[Fuc(a1-3)]GlcNAc(b1-2)Man(a1-3)[Gal(a1-3)Gal(b1-4)[Fuc(a1-3)]GlcNAc(b1-2)Man(a1-6)]Man(b1-4)GlcNAc(b1-4)GlcNAc
Summary of the method: as §1

Gal(a1-3)GalNAc = molecular target: Gal(a1-3)GalNAc
Summary of the method: as §1

[16] = molecular target: Gal(a1-3)[Gal(a1-4)]Gal(b1-4)GlcNAc
Summary of the method: as §1

[17] = molecular target: Gal(a1-4)Gal(b1-3)GlcNAc(b1-2)Man(a1-3)[Gal(a1-4)Gal(b1-3)GlcNAc(b1-2)Man(a1-6)]Man(b1-4)GlcNAc(b1-4)GlcNAc
Summary of the method: as §1

Gal(a1-4)Gal(b1-4)Glc = molecular target: Gal(a1-4)Gal(b1-4)Glc
Summary of the method: as §1

Gal(a1-4)Gal(b1-4)GlcNAc = molecular target: Gal(a1-4)Gal(b1-4)GlcNAc
Summary of the method: as §1

[18] = molecular target: Gal(a1-4)Gal(b1-4)GlcNAc(b1-2)Man(a1-3)[Gal(a1-4)Gal(b1-4)GlcNAc(b1-2)Man(a1-6)]Man(b1-4)GlcNAc(b1-4)GlcNAc
Summary of the method: as §1

[19] = molecular target: Gal(a1-4)Gal(b1-4)GlcNAc(b1-3)Gal(b1-4)Glc
Summary of the method: as §1

Gal(a1-4)GlcNAc = molecular target: Gal(a1-4)GlcNAc
Summary of the method: as §1

Gal(a1-6)Glc = molecular target: Gal(a1-6)Glc
Summary of the method: as §1

Gal(b1-2)Gal = molecular target: Gal(b1-2)Gal
Summary of the method: as §1

Gal(b1-3)Gal = molecular target: Gal(b1-3)Gal
Summary of the method: as §1

Gal(b1-3)Gal(b1-4)GlcNAc = molecular target: Gal(b1-3)Gal(b1-4)GlcNAc
Summary of the method: as §1

Gal(b1-3)GalNAc = molecular target: Gal(b1-3)GalNAc
Summary of the method: as §1

[20] = molecular target: Gal(b1-3)GalNAc(a1-3)[Fuc(a1-2)]Gal(b1-4)Glc
Summary of the method: as §1

[21] = molecular target: Gal(b1-3)GalNAc(a1-3)[Fuc(a1-2)]Gal(b1-4)GlcNAc
Summary of the method: as §1

Gal(b1-3)GalNAc(b1-3)Gal = molecular target: Gal(b1-3)GalNAc(b1-3)Gal
Summary of the method: as §1

[22] = molecular target: Gal(b1-3)GalNAc(b1-3)Gal(a1-4)Gal(b1-4)Glc
Summary of the method: as §1

[23] = molecular target: Gal(b1-3)GalNAc(b1-4)Gal(b1-4)Glc
Summary of the method: as §1

[24] = molecular target: Gal(b1-3)GalNAc(b1-4)[Neu5Ac(a2-3)]Gal(b1-4)Glc
Summary of the method: as §1

Gal(b1-3)GlcNAc = molecular target: Gal(b1-3)GlcNAc
Summary of the method: as §1

[25] = molecular target: Gal(b1-3)GlcNAc(a1-3)Gal(b1-4)GlcNAc
Summary of the method: as §1

[26] = molecular target: Gal(b1-3)GlcNAc(a1-6)Gal(b1-4)GlcNAc
Summary of the method: as §1

Gal(b1-3)GlcNAc(b1-2)Man = molecular target: Gal(b1-3)GlcNAc(b1-2)Man
Summary of the method: as §1

B1: LICBM33A (Lactococcus lactis), Q9CE94 (protein)
chain: MKKLLTGLLVAAGLLSVSLLIKTDTVSAHGYVQSPPARGYQGQLDSQSLGWTAAFNIYGNVISNPQSLEAPKGFPECGPADGRIASANGGLGQIGDFVLDNQTSSRWKKTSISTGSNIFTWKYTAPHKTTKWHYYMTKTGWDQNAPLKHSELELIGTINHDGSPATNNLSHTINIPTDRSGYHIVLAVWDVADTSNAFYNVIDINVNNKNASSQVFGPFL
[1]
  glycan array binding signal (z-score): -0.361
[2]
  glycan array binding signal (z-score): 0.112
[3]
  glycan array binding signal (z-score): 0.22
[4]
  glycan array binding signal (z-score): -0.147
Fuc(a1-4)GlcNAc
  glycan array binding signal (z-score): -0.206
Fuc(b1-3)GlcNAc
  glycan array binding signal (z-score): 0.586
Gal(a1-2)Gal
  glycan array binding signal (z-score): -0.28
Gal(a1-3)Gal
  glycan array binding signal (z-score): -0.484
Gal(a1-3)Gal(b1-3)GlcNAc
  glycan array binding signal (z-score): -0.414
[5]
  glycan array binding signal (z-score): -0.173
[6]
  glycan array binding signal (z-score): 0.134
[7]
  glycan array binding signal (z-score): 0.936
[8]
  glycan array binding signal (z-score): -0.563
[9]
  glycan array binding signal (z-score): -0.268
Gal(a1-3)Gal(b1-4)Glc
  glycan array binding signal (z-score): -0.696
Gal(a1-3)Gal(b1-4)GlcNAc
  glycan array binding signal (z-score): -0.436
[10]
  glycan array binding signal (z-score): -0.464
[11]
  glycan array binding signal (z-score): 0.758
[12]
  glycan array binding signal (z-score): 2.06
[13]
  glycan array binding signal (z-score): -0.656
[14]
  glycan array binding signal (z-score): -0.288
[15]
  glycan array binding signal (z-score): -0.371
Gal(a1-3)GalNAc
  glycan array binding signal (z-score): -0.228
[16]
  glycan array binding signal (z-score): -0.13
[17]
  glycan array binding signal (z-score): -0.616
Gal(a1-4)Gal(b1-4)Glc
  glycan array binding signal (z-score): 1.58
Gal(a1-4)Gal(b1-4)GlcNAc
  glycan array binding signal (z-score): 0.111
[18]
  glycan array binding signal (z-score): -0.297
[19]
  glycan array binding signal (z-score): 0.203
Gal(a1-4)GlcNAc
  glycan array binding signal (z-score): -0.297
Gal(a1-6)Glc
  glycan array binding signal (z-score): -0.259
Gal(b1-2)Gal
  glycan array binding signal (z-score): -1.96
Gal(b1-3)Gal
  glycan array binding signal (z-score): 0.193
Gal(b1-3)Gal(b1-4)GlcNAc
  glycan array binding signal (z-score): -0.142
Gal(b1-3)GalNAc
  glycan array binding signal (z-score): -0.376
[20]
  glycan array binding signal (z-score): -0.262
[21]
  glycan array binding signal (z-score): -0.156
Gal(b1-3)GalNAc(b1-3)Gal
  glycan array binding signal (z-score): -0.716
[22]
  glycan array binding signal (z-score): 0.5
[23]
  glycan array binding signal (z-score): 0.1
[24]
  glycan array binding signal (z-score): -0.354
Gal(b1-3)GlcNAc
  glycan array binding signal (z-score): -0.469
[25]
  glycan array binding signal (z-score): -0.723
[26]
  glycan array binding signal (z-score): 0.467
Gal(b1-3)GlcNAc(b1-2)Man
  glycan array binding signal (z-score): -0.136
